# In publication PMC10668032:
# Some of the results follow. At the low end of the ranking, values are background and their order means little.
# Molecular target: SIX1-Q177R homeodomain (UniProt Q15475)
# Experiment: universal protein binding microarray
# Details: Universal all-10-mer PBM (8x60K, AMADID 030236), 300 nM GST-tagged protein, Alexa Fluor 488 anti-GST; buffer, salt, pH and temperature not stated; high values mean tight binding; most listed sequences are background and not binding sites; double strand, one strand shown
row,Sequence,binding signal [E-score]
1,GCCGGCGC,-0.117
2,TCTGAAAA,-0.09
3,GCAAGATA,-0.123
4,ACCGTTAC,0.0536
5,AGGGCGCA,-0.151
6,TACCCGCA,0.142
7,GGGCCCCC,-0.0863
8,CTCGGTCA,0.0784
9,ACTTGGTG,0.288
10,AGATCTAC,-0.22
11,AATGGTGT,0.475
12,ATGGCGGA,-0.183
13,AAACGTCC,-0.193
14,ATCGCTAG,-0.175
15,ATCTCACC,0.155
16,AATCACTA,-0.144
17,CCAAGCGC,-0.0916
18,AACAGTAG,-0.221
19,ATTAACTC,0.0753
20,CCGACCGC,-0.183
21,GTACTACA,0.277
22,CATCCAAA,-0.0554
23,AGGCCTTG,-0.0716
24,GGAATCGA,0.0353
25,ATTTGAAA,-0.161

row,Sequence,binding signal [E-score]
1,AGCCAAGC,-0.262
2,CCCAGGCG,0.167
3,GAATCCAA,-0.159
4,CTTTTTCC,-0.329
5,CTACCCCA,0.149
6,AAACATTA,-0.283
7,TAGTGGGA,0.124
8,CAGCGTCG,-0.16
9,CTGGAGAA,-0.361
10,AGGTAGTA,-0.00156
11,CCGGGTAC,0.294
12,CACGGGCC,0.161
13,AGTCTTCA,-0.33
14,CATATCAA,-0.152
15,CGGGAAAA,-0.168
16,GACGGGCC,-0.0695
17,ACTAGGGC,-0.0858
18,GCTATTTA,0.0343
19,TCCAGGAA,0.0222
20,GGCTTAGA,-0.227
21,GTGAGACA,0.0874
22,CTGACGCA,-0.144
23,GTACAGAC,-0.154
24,GCTTGTAC,0.127
25,AACGAGGC,-0.158

row,Sequence,binding signal [E-score]
1,ACGCAGCC,0.129
2,GATACGCA,-0.0275
3,CGTGGTCC,0.0881
4,AATTTCAC,-0.254
5,AAGCAGCC,-0.242
6,AAACTCGT,-0.253
7,GGATACCA,0.327
8,AATCACAG,-0.092
9,GGATGGAA,-0.204
10,ATGCGAGG,-0.154
11,GAGGCATC,-0.29
12,ATCGTGGA,-0.17
13,CAGTAGCG,-0.000655
14,ATCGGCTG,-0.117
15,CAGCCCGA,-0.087
16,ATAGGGAT,0.0997
17,GCGACTTA,-0.0825
18,CAAGCGCG,-0.143
19,TTAGTGAA,0.0486
20,CGGTACTC,0.0324
21,CACATGGG,0.0542
22,AGGTCTTG,-0.334
23,GCCCTACA,0.0464
24,ATTTCACG,-0.0615
25,CTGTGGGA,0.144

row,Sequence,binding signal [E-score]
1,CTGCCAGA,-0.163
2,TGATGGCA,-0.157
3,AGACGTGC,-0.15
4,GCTCTTTA,-0.254
5,ACGACAAC,0.0123
6,ACGGGATC,0.197
7,ATGCCCCA,-0.16
8,CTGTAGGC,-0.31
9,ATGGGAGA,-0.131
10,AGTCGAAC,-0.094
11,GAGGGAAC,-0.115
12,AGACTGTA,-0.22
13,CTTAAGTC,-0.282
14,CTGATGGC,-0.118
15,CTGGCGGC,-0.0914
16,AAGAACTT,-0.312
17,ATTGATGA,-0.266
18,ATGGCCCG,-0.123
19,CCCTTGAA,-0.0745
20,AGCGTCTG,-0.139
21,CTACACAC,0.297
22,CCTCGACC,0.0207
23,TAAGTCGA,-0.0334
24,AGTTTTAT,-0.197
25,GTCACAGA,-0.0317

row,Sequence,binding signal [E-score]
1,ATCGGCCG,-0.145
2,AATTGGGA,-0.134
3,ACAAAAGA,-0.141
4,CGATCTGA,-0.182
5,GGGAACAA,0.0131
6,CGTTCACA,-0.0349
7,GAGCAGCA,-0.217
8,CGGCCGTA,-0.0496
9,ACAGAGTG,0.184
10,GACACACC,0.422
11,AGCAGAAG,-0.186
12,TGCCAGCA,-0.00722
13,AGCCATGC,-0.321
14,GCTTTACC,0.0775
15,ATTCCCGA,-0.128
16,GGGCCCGA,-0.0924
17,ATAAATTA,-0.189
18,GACGCCTC,0.104
19,CGGGCTTC,0.0774
20,CGGGGAAC,0.103
21,CCAGATAA,0.072
22,ACTATCAT,-0.0747
23,AGCATCAG,-0.0214
24,TATAAGAA,-0.227
25,TACTCGCA,0.128

row,Sequence,binding signal [E-score]
1,AGCATCAA,-0.223
2,AGCTTAGC,-0.22
3,CAGCTCGC,-0.22
4,CATCATGG,-0.0147
5,TCAAAGAA,-0.056
6,GGTCTTAC,0.062
7,AAACACGA,0.324
8,CGACTGTA,0.019
9,CCAGATTC,-0.132
10,CAACGTCG,-0.0989
11,CAGATTTA,-0.111
12,AGTTGTCG,-0.0454
13,ACACTCGG,0.408
14,ATAAGACG,-0.132
15,CGCGACAG,-0.115
16,GACCGTGA,-0.158
17,CGCGTGAG,-0.106
18,ACTTCGTG,0.238
19,TAGCTTCA,-0.126
20,TTACAAAA,-0.109
21,AGTGTTCC,0.334
22,CATTTGGA,0.102
23,GCTTTCAC,0.00426
24,ACAACCTG,0.0376
25,AAAGAGCG,-0.276

row,Sequence,binding signal [E-score]
1,GCTGTGTA,0.223
2,ACCTGATG,-0.0321
3,GCCATGTA,-0.116
4,ATTCAACA,-0.0267
5,AATGCACG,0.101
6,CAGGCTGA,-0.00611
7,GGCCGGAC,-0.192
8,ACACTCGA,0.358
9,ACGGCCAC,-0.099
10,AAGCACCG,0.175
11,ACCACGTA,-0.0737
12,CGTTGATC,-0.185
13,CAACAGCG,0.00367
14,CATACTAA,-0.0276
15,AAAATCGT,-0.192
16,CCGTGTAA,0.44
17,AGACTTGA,-0.176
18,CGAAGTTC,-0.29
19,AGTAACAG,-0.0285
20,AGTTCGCC,-0.294
21,CCAGTGCC,0.0612
22,GTATTAAA,-0.0315
23,CTGCAGTA,-0.173
24,ACCGACGT,0.00033
25,CAAGCCGG,-0.00524

row,Sequence,binding signal [E-score]
1,ACGCCCGG,0.206
2,AAAACGTA,-0.0459
3,CGTGAAAC,0.0541
4,GGAGAGGA,-0.0525
5,ATAGCCGC,-0.189
6,ATCTTGAC,-0.0828
7,AACCCCCG,0.244
8,AGAACGTA,-0.226
9,GACATTAA,-0.141
10,CGGCGCCG,-0.0454
11,CAAAGACG,-0.212
12,CGGTGACG,0.083
13,AGGTCGGC,-0.0277
14,GAGGGAGC,-0.109
15,ATCACAAA,-0.157
16,AGGTTATA,-0.0318
17,AACAATGA,-0.0671
18,ACGGACGT,0.0377
19,ACTCCGGA,0.204
20,ACACGACG,0.368
21,GCGAACGA,-0.139
22,CCGCTCAG,0.0474
23,ATTGGTCG,-0.16
24,AGGTGAGA,-0.103
25,ATCGGTTC,-0.13

row,Sequence,binding signal [E-score]
1,ATGTGTCA,0.253
2,ATTATCTC,-0.172
3,CTCCAACA,0.206
4,TGGCCCCA,-0.141
5,GCCGGGCA,-0.0693
6,CAGCGGTA,-0.0532
7,AAGTCGGT,-0.191
8,CGGAGTGC,0.0207
9,ACCCGTGA,0.0625
10,CTATAAAG,-0.093
11,CCTAAGAA,-0.132
12,ACCATCCC,0.0967
13,GGCGTAAC,0.0084
14,ACCAGTCC,-0.0974
15,ACACGTAC,0.353
16,CAATTCCG,-0.041
17,CCAGTGTC,0.431
18,ACTGGCGA,0.0467
19,CGGTCTCA,-0.123
20,ACCACTAG,0.0756
21,CAGCTCCA,-0.11
22,AATTTACT,0.0362
23,CCCAAACG,0.169
24,CACCGTTC,0.324
25,ACGATTTC,-0.106

row,Sequence,binding signal [E-score]
1,GTCGTGGA,-0.0282
2,GACTCTTA,0.0345
3,CATAACGC,0.0201
4,CGATATCC,0.132
5,GGTACTTA,-0.0133
6,CGCCTTGC,-0.0564
7,ATAGAAAG,-0.0414
8,CAGTACAA,0.0924
9,CGTGTGTC,0.289
10,CACTGCGG,0.154
11,ACCACTCC,0.0931
12,CGGAATCC,-0.00467
13,AAAGGAGA,-0.167
14,TAGTGTCA,0.454
15,ATTAACGG,0.0055
16,AGTAATTA,-0.0481
17,CATTCTAG,-0.0463
18,ACCTCGAT,0.138
19,AGTGTAAA,0.402
20,CTCTGCAA,-0.147
21,AGCCCATA,-0.0225
22,CTCTGGGA,-0.0853
23,CCAAGCAC,0.142
24,CGCATACC,-0.0375
25,CCGAAACA,0.0245

row,Sequence,binding signal [E-score]
1,CGGGAAGC,-0.027
2,ATTAACGC,-0.0649
3,GTCGTAAA,0.00539
4,AGTATGAC,0.094
5,GTCGCGAA,0.0937
6,AAAGCGGC,-0.248
7,CCTCCGCA,-0.0882
8,GGATAAAC,0.169
9,AGCAGATC,-0.0205
10,CGAAATCC,-0.103
11,AGGAAGAA,-0.182
12,AAAGAGGT,0.101
13,AAAGCATA,-0.218
14,GCGTTTAC,0.16
15,ATCATCAC,0.0203
16,AGCACGAG,-0.0568
17,AATCCCGA,0.0834
18,AAATGCGC,-0.167
19,GCCAAGCA,-0.195
20,ATTTCCTA,0.00118
21,TAGTTCCA,-0.179
22,GTGCGTCA,0.104
23,CGGCAGAA,-0.254
24,AACTATAA,-0.259
25,ATGGTTAC,-0.0455

row,Sequence,binding signal [E-score]
1,ACGCATAC,0.0588
2,AAGCATAG,-0.318
3,CTGGAACC,-0.062
4,ACTACCCG,0.204
5,CCGGCGCG,0.0543
6,GGCCTGAA,-0.152
7,AAATAATA,-0.151
8,TGCTGACA,0.122
9,AAGCGTAA,-0.0252
10,GACCATGC,-0.0977
11,AATCAAAC,-0.0519
12,AAGTTCCA,-0.256
13,AGTACCGA,0.00653
14,ACATGCCG,-0.0193
15,AACAGAAA,-0.211
16,GCTTGCAC,0.00092
17,CCTTTAGC,-0.152
18,GAATCCTC,-0.118
19,CTAAGATC,-0.159
20,CCCGCCGC,0.184
21,CCGTGCCG,0.0677
22,CCCCTGTA,0.102
23,AATCTGCT,-0.334
24,ACTTGGCA,-0.0568
25,AGCCGTAA,-0.209

row,Sequence,binding signal [E-score]
1,ACGTACAT,0.00483
2,ATAAATGG,-0.00499
3,CGAGAGTC,0.00991
4,ATTCTCGC,-0.152
5,AAGGAATC,0.0436
6,AGGTGAGC,-0.119
7,CCTTGAGC,0.00841
8,CGCAGACC,-0.176
9,AAGGCGGT,0.0185
10,AGTCGTTC,-0.0763
11,GCACTGAC,-0.0184
12,GTTACTTA,0.064
13,TTCACAAA,0.0659
14,GCTCTACA,0.0598
15,CTCTGTAC,-0.0644
16,CCTCAACA,0.204
17,CTTATCGA,-0.0522
18,AAAGATCC,-0.174
19,CGTTGGGC,-0.0337
20,ACAACGAA,-0.0242
21,AAGTCACG,-0.0149
22,ACGATTGC,-0.0427
23,CGGAAGTA,-0.0591
24,CAGATCCG,0.0479
25,TCATAGGA,-0.138

row,Sequence,binding signal [E-score]
1,ATTTCATA,0.00298
2,ACGGCCAG,-0.0922
3,CCAGGGGG,0.0958
4,AAAGCCAT,-0.27
5,GATCTGCA,0.00799
6,CACAGCTC,-0.0371
7,CGATACCG,0.233
8,GGTAAGGA,-0.0813
9,AGCTGATA,-0.0947
10,CGACATGA,0.0835
11,GATCTTCA,-0.0843
12,CTGCAGGC,-0.249
13,CTCCGGAA,-0.12
14,TGACTCCA,0.249
15,AATGCGCC,0.0246
16,GCGGACTA,-0.177
17,ACGTGTTA,0.352
18,GAAGGGGA,-0.0302
19,CCCGGGTA,0.252
